Reference: PubChem BioAssay AID504937 (National Center for Advancing Translational Sciences (NCATS), 2011)
In all, about 340,000 compounds went through this assay and about 20 (0.006%) were called active. The shares of active, inactive and inconclusive entries below differ from those in the screen. Calls come from the whole dose curve; as a rule, active = well fitted inhibition curve with a large enough effect; inconclusive = small, poorly fitted or top-dose-only effect; inactive = no such curve, though single readings can be large or run the other way. Potencies beside an inconclusive call are fits to weak or partial responses and may not hold up.

Target: Sphingomyelin phosphodiesterase (Homo sapiens) (UniProt P17405)
UniProt P17405, sequence (P17405 whole entry, looked up): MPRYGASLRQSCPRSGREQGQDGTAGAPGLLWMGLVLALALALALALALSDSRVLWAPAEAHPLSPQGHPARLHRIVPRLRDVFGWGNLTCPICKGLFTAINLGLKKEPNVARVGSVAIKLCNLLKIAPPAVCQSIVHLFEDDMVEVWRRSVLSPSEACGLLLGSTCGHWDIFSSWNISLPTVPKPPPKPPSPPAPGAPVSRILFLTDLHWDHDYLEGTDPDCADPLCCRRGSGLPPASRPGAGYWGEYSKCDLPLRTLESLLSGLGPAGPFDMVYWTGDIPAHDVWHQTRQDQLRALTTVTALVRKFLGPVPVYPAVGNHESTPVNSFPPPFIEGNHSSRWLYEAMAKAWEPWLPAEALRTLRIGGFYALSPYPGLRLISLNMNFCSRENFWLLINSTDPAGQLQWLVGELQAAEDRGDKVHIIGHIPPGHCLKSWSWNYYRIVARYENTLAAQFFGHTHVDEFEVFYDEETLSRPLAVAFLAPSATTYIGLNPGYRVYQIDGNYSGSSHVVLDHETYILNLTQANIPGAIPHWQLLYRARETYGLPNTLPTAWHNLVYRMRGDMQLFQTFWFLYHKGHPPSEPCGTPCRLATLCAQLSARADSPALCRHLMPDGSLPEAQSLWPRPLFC
Assay: Inhibitors of Secretory Acid Sphingomyelinase (S-ASM): qHTS
Settings: placental ASM, HMU-PC fluorogenic substrate (series up to 57.5 µM), 60 min
Procedure, shortened: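 Steps: dispense placental human ASM, pin compound, wait 10 min at room temperature, add HMU-PC0 substrate at 9 uM final, incubate 60 min at 37 °C, add stop solution raising pH to 10, read fluorescence.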
Potency is the fitted concentration of half-maximal effect; tags give direction and shape of the fitted curve.

| SMILES | Potency |
| --- | --- |
| Cc1ccc(C)c(-c2cc(C(=O)Nc3nccs3)c3ccccc3n2)c1 | inconclusive: 200 µM [inhibitor, partial curve, poor fit] |
| CCOc1ccc(NC(=O)C2CC3CCC2C3)cc1 (stereo unspecified) | inactive |
| CSc1ccc(/C=N/NC(=O)CNc2ccc3ccccc3c2)cc1 | inconclusive: 158 µM [inhibitor, partial curve, poor fit] |
| O=C1Nc2ccccc2N=C(c2ccccc2)C1Br (stereo unspecified) | inconclusive: 63.1 µM [inhibitor, partial curve, poor fit] |
| O=C(N/N=C/c1ccccn1)c1cc(-c2cccc3ccccc23)n[nH]1 | inactive |
| COc1ccc(CN(C)C(=O)COC(=O)c2cc([N+](=O)[O-])ccc2N2CCCC2)c(OC)c1OC | inconclusive: 100 µM [inhibitor, partial curve, poor fit] |
| O=C(Sc1ccc(Cl)cc1)c1cccc(Cn2cc(C(F)(F)F)ccc2=O)c1 | inconclusive: 126 µM [inhibitor, partial curve, poor fit] |
| COc1ccc(-c2[nH]c(-c3ccc(C)cc3)nc2SCC(=O)Nc2nccs2)cc1 | inconclusive: 44.7 µM [inhibitor, partial curve, poor fit] |
| CCN(CC)c1nc(Nc2ccc(Cl)cc2)nc(OCC#N)n1 | inconclusive: 112 µM [inhibitor, single point] |
| CN(C)C1=C(Cl)C(=O)N(c2ccc(Cl)c(Cl)c2)C1=O | inactive |
| Cc1ccc2nc(-c3ccccc3)cc(C(=O)NNC(=O)c3csc(N4CCOCC4)n3)c2c1 | inconclusive: 112 µM [inhibitor, partial curve, poor fit] |
| CCc1ccc(/C=C2/SC(=S)N(CC(=O)Nc3nc4ccccc4s3)C2=O)cc1 | inconclusive: 282 µM [inhibitor, partial curve, poor fit] |
| O=C1ON=C(c2ccccc2)/C1=C/c1ccc(OS(=O)(=O)c2ccccc2)cc1 | inconclusive: 89.1 µM [inhibitor, partial curve, poor fit] |
| CCOC(=O)c1sc(NC(=O)C2CC(=O)N(c3ccc(OCC)cc3)C2)nc1C (stereo unspecified) | inconclusive: 79.4 µM [inhibitor, partial curve, poor fit] |
| C=CCOc1ccc(C=NNc2ccc(S(=O)(=O)Nc3ccccc3C(=O)O)cc2[N+](=O)[O-])cc1OC | inconclusive: 50.1 µM [inhibitor, partial curve, poor fit] |
| Cc1nc(Oc2cccc(Cl)c2)c2oc3ccccc3c2n1 | inconclusive: 316 µM [inhibitor, partial curve, poor fit] |
